Measured values as given in the supplement of paper PMC8728848.
This is one part of the list.

How the values were obtained:
Assay in all cases: glycan array binding signal (z-score within array); higher = stronger binding
Conditions in all cases: glycan notation: IUPAC condensed, linker removed
[1] = target: Fuc(a1-3)[Gal(b1-4)]GlcNAc(b1-3)Gal(b1-3)[Fuc(a1-4)]GlcNAc
In short: (§1)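 The binding signal is a Z-score computed within each array. Data were drawn from 3228 arrays in the Consortium for Functional Glycomics database, restricted to those with a known protein sequence. Scores were averaged over arrays of the same protein sequence at different concentrations or buffers, and over linkers, and negative values can be taken as non-binding.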

[2] = target: Fuc(a1-3)[Gal(b1-4)]GlcNAc(b1-3)Gal(b1-4)[Fuc(a1-3)]GlcNAc
In short: as §1

[3] = target: Fuc(a1-3)[Gal(b1-4)]GlcNAc(b1-3)Gal(b1-4)[Fuc(a1-3)]GlcNAc(b1-3)Gal(b1-4)[Fuc(a1-3)]GlcNAc
In short: as §1

[4] = target: Fuc(a1-3)[Gal(b1-4)]GlcNAc(b1-3)GalNAc
In short: as §1

[5] = target: Fuc(a1-3)[Gal(b1-4)]GlcNAc(b1-6)GalNAc
In short: as §1

[6] = target: Fuc(a1-3)[Gal(b1-4)]GlcNAc(b1-6)[Gal(b1-3)GlcNAc(b1-3)]Gal(b1-4)Glc
In short: as §1

[7] = target: Fuc(a1-3)[Gal(b1-4)]GlcNAc6S
In short: as §1

[8] = target: Fuc(a1-3)[Gal3S(b1-4)]Glc
In short: as §1

[9] = target: Fuc(a1-3)[Gal3S(b1-4)]GlcNAc
In short: as §1

[10] = target: Fuc(a1-3)[Gal3S(b1-4)]GlcNAc6S
In short: as §1

[11] = target: Fuc(a1-3)[GalNAc(b1-4)]GlcNAc
In short: as §1

[12] = target: Fuc(a1-3)[GalNAc(b1-4)]GlcNAc6S
In short: as §1

Fuc(a1-4)GlcNAc = target: Fuc(a1-4)GlcNAc
In short: as §1

Fuc(b1-3)GlcNAc = target: Fuc(b1-3)GlcNAc
In short: as §1

Gal(a1-2)Gal = target: Gal(a1-2)Gal
In short: as §1

Gal(a1-3)Gal = target: Gal(a1-3)Gal
In short: as §1

Gal(a1-3)Gal(b1-3)GlcNAc = target: Gal(a1-3)Gal(b1-3)GlcNAc
In short: as §1

[13] = target: Gal(a1-3)Gal(b1-3)GlcNAc(b1-2)Man
In short: as §1

[14] = target: Gal(a1-3)Gal(b1-3)GlcNAc(b1-2)Man(a1-3)[Gal(a1-3)Gal(b1-3)GlcNAc(b1-2)Man(a1-6)]Man(b1-4)GlcNAc(b1-4)GlcNAc
In short: as §1

[15] = target: Gal(a1-3)Gal(b1-3)GlcNAc(b1-3)GalNAc
In short: as §1

[16] = target: Gal(a1-3)Gal(b1-3)GlcNAc(b1-6)GalNAc
In short: as §1

[17] = target: Gal(a1-3)Gal(b1-3)[Fuc(a1-4)]GlcNAc(b1-2)Man(a1-3)[Gal(a1-3)Gal(b1-3)[Fuc(a1-4)]GlcNAc(b1-2)Man(a1-6)]Man(b1-4)GlcNAc(b1-4)GlcNAc
In short: as §1

Gal(a1-3)Gal(b1-4)Glc = target: Gal(a1-3)Gal(b1-4)Glc
In short: as §1

Gal(a1-3)Gal(b1-4)GlcNAc = target: Gal(a1-3)Gal(b1-4)GlcNAc
In short: as §1

[18] = target: Gal(a1-3)Gal(b1-4)GlcNAc(b1-2)Man
In short: as §1

[19] = target: Gal(a1-3)Gal(b1-4)GlcNAc(b1-2)Man(a1-3)[Gal(a1-3)Gal(b1-4)GlcNAc(b1-2)Man(a1-6)]Man(b1-4)GlcNAc(b1-4)GlcNAc
In short: as §1

[20] = target: Gal(a1-3)Gal(b1-4)GlcNAc(b1-3)GalNAc
In short: as §1

[21] = target: Gal(a1-3)Gal(b1-4)GlcNAc(b1-6)GalNAc
In short: as §1

[22] = target: Gal(a1-3)Gal(b1-4)[Fuc(a1-3)]GlcNAc
In short: as §1

[23] = target: Gal(a1-3)Gal(b1-4)[Fuc(a1-3)]GlcNAc(b1-2)Man(a1-3)[Gal(a1-3)Gal(b1-4)[Fuc(a1-3)]GlcNAc(b1-2)Man(a1-6)]Man(b1-4)GlcNAc(b1-4)GlcNAc
In short: as §1

Gal(a1-3)GalNAc = target: Gal(a1-3)GalNAc
In short: as §1

[24] = target: Gal(a1-3)[Gal(a1-4)]Gal(b1-4)GlcNAc
In short: as §1

[25] = target: Gal(a1-4)Gal(b1-3)GlcNAc(b1-2)Man(a1-3)[Gal(a1-4)Gal(b1-3)GlcNAc(b1-2)Man(a1-6)]Man(b1-4)GlcNAc(b1-4)GlcNAc
In short: as §1

Gal(a1-4)Gal(b1-4)Glc = target: Gal(a1-4)Gal(b1-4)Glc
In short: as §1

Gal(a1-4)Gal(b1-4)GlcNAc = target: Gal(a1-4)Gal(b1-4)GlcNAc
In short: as §1

[26] = target: Gal(a1-4)Gal(b1-4)GlcNAc(b1-2)Man(a1-3)[Gal(a1-4)Gal(b1-4)GlcNAc(b1-2)Man(a1-6)]Man(b1-4)GlcNAc(b1-4)GlcNAc
In short: as §1

[27] = target: Gal(a1-4)Gal(b1-4)GlcNAc(b1-3)Gal(b1-4)Glc
In short: as §1

Gal(a1-4)GlcNAc = target: Gal(a1-4)GlcNAc
In short: as §1

B1: Als3-41 (Candida albicans) (protein)
chain: KTITGVFNSFNSLTWSNAATYNYKGPGTPTWNAVLGWSLDGTSASPGDTFTLNMPCVFKFTTSQTSVDLTAHGVKYATCQFQAGEEFMTFSTLTCTVSNTLTPSIKALGTVTLPLAFNVGGTGSSVDLEDSKCFTAGTNTVTFNDGGKKISINVDFERSNVDPKGYLTDSRVIPSLNKVSTLFVAPQCANGYTSGTMGFANTYGDVQIDCSNIHVGITKGLNDWNYPVSSESFSYTKTCSSNGIFITYKNVPAGYRPFVDAYISATDVNSYTLSYANEYTCAGGYWQRAPFTLRWTGYRNSDAGSNGIVIVATTRTVTDSTTAVTTLPFDPNRDKTKTIEILKPIPTTTITTSYVGVTTSYLTKTAPIGETATVIVD
For B1, the “glycan array binding signal (z-score)” value [1] was -0.315, the “glycan array binding signal (z-score)” value [2] was -0.121 and the “glycan array binding signal (z-score)” value [3] was -0.317. For the same binder, the “glycan array binding signal (z-score)” value [4] was 0.174, the “glycan array binding signal (z-score)” value [5] was 0.223 and the “glycan array binding signal (z-score)” value [6] was -0.342. The “glycan array binding signal (z-score)” value [7] was 0.9, the “glycan array binding signal (z-score)” value [8] was 0.118 and the “glycan array binding signal (z-score)” value [9] was -0.125. For the same binder, the “glycan array binding signal (z-score)” value [10] was 1.6, the “glycan array binding signal (z-score)” value [11] was -0.075 and the “glycan array binding signal (z-score)” value [12] was 0.113. For the same binder, the “glycan array binding signal (z-score)” value (Fuc(a1-4)GlcNAc) was 7.63, the “glycan array binding signal (z-score)” value (Fuc(b1-3)GlcNAc) was -0.1 and the “glycan array binding signal (z-score)” value (Gal(a1-2)Gal) was -0.006. For the same binder, the “glycan array binding signal (z-score)” value (Gal(a1-3)Gal) was -0.269, the “glycan array binding signal (z-score)” value (Gal(a1-3)Gal(b1-3)GlcNAc) was -0.274 and the “glycan array binding signal (z-score)” value [13] was -0.272. The “glycan array binding signal (z-score)” value [14] was 0.022, the “glycan array binding signal (z-score)” value [15] was 0.231 and the “glycan array binding signal (z-score)” value [16] was -0.293. The “glycan array binding signal (z-score)” value [17] was -0.227, the “glycan array binding signal (z-score)” value (Gal(a1-3)Gal(b1-4)Glc) was -0.321 and the “glycan array binding signal (z-score)” value (Gal(a1-3)Gal(b1-4)GlcNAc) was -0.345. The “glycan array binding signal (z-score)” value [18] was -0.289, the “glycan array binding signal (z-score)” value [19] was 0.23 and the “glycan array binding signal (z-score)” value [20] was -0.242. For the same binder, the “glycan array binding signal (z-score)” value [21] was -0.001, the “glycan array binding signal (z-score)” value [22] was -0.125 and the “glycan array binding signal (z-score)” value [23] was 0.391. The “glycan array binding signal (z-score)” value (Gal(a1-3)GalNAc) was -0.296, the “glycan array binding signal (z-score)” value [24] was -0.252 and the “glycan array binding signal (z-score)” value [25] was 0.106. The “glycan array binding signal (z-score)” value (Gal(a1-4)Gal(b1-4)Glc) was -0.114, the “glycan array binding signal (z-score)” value (Gal(a1-4)Gal(b1-4)GlcNAc) was 0.331 and the “glycan array binding signal (z-score)” value [26] was 0.002. For the same binder, the “glycan array binding signal (z-score)” value [27] was -0.213 and the “glycan array binding signal (z-score)” value (Gal(a1-4)GlcNAc) was -0.149.
